The campaign covered roughly 310,000 compounds. About 18,000 (5.8%) were called active. The inconclusive results got no clear call from the source; some entries with a clear call stand among them for comparison. Calls follow the shape of the dose curve; as a rule, active = well fitted inhibition curve with a large enough effect; inconclusive = small, poorly fitted or top-dose-only effect, or another doubt; inactive = no such curve, though single readings can be large or run the other way. No potency is given beside an inconclusive call; the fits are too rough.
Test: Primary qHTS for delayed death inhibitors of the malarial parasite plastid, 48 hour incubation
Settings: P. falciparum luciferase growth in erythrocytes; series mostly up to 28.7 µM; activity change, negative = inhibition: at the top concentration
How it was run: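 Firefly luciferase activity from engineered P. falciparum reports growth; inhibitors lower the luminescent signal. Cultures contained 2% hematocrit erythrocytes at 0.1% final parasitemia.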
% is scaled to controls: 0 for no effect and ±100 for the full control effect; potency is read from the fitted curve at half-maximal effect; tags tell the direction and shape of the fitted curve.

SMILES | Potency | activity change, negative = inhibition
COC(=O)C1=CN(c2ccc(F)cc2)C=C(C(=O)OC)C1c1ccc([N+](=O)[O-])cc1 | active: 7.38 µM | –
CC1CCN(Cc2cc(=O)oc3ccc(C(C)C)cc23)CC1 | active: 3.29 µM | –
COc1ccc(NC(=O)NC(c2ccccc2)c2ccccc2)c(OC)c1 | – | inactive: 7.19%
COc1ccc(/C(O)=C/C(=O)C(=O)Nc2c(C)n(C)n(-c3ccccc3)c2=O)cc1 | – | inactive: 25.9%
NC(=O)CC(NC(=O)Cc1ccc(Br)cc1)c1ccc(N2CCC(Br)CC2)c([N+](=O)[O-])c1 (stereo not drawn) | inconclusive [inhibitor, partial curve, poor fit] | –
CCCc1cc(=O)[nH]c(SCCN2C(=O)c3ccccc3C2=O)n1 | – | inactive: 12.9%
CCC(C)c1c(O)nc(SCC(=O)N2CCCCCC2)[nH]c1=O (stereo not drawn) | inconclusive [inhibitor, single point] | –
O=C(NCc1ccco1)C1c2ccccc2Oc2ccccc21 | inconclusive [inhibitor, full curve, poor fit] | –
Cc1ccccc1NC(=S)NC(NC(=O)N(C)C)C(Cl)(Cl)Cl (stereo not drawn) | inconclusive [inhibitor, single point] | –
CN(C)S(=O)(=O)c1ccc(Nc2ccc(-c3ccc4c(c3)OCCO4)nn2)cc1 | inconclusive [inhibitor, partial curve] | –
CCCCn1cnc2c(c(-c3ccccc3)c(-c3ccccc3)n2Cc2ccco2)c1=N | active: 4.15 µM | –
Cc1ccc(NC(=O)C2CC(=O)N(c3ccc4c(c3)OCCO4)C2)cc1S(=O)(=O)N1CCCCCC1 (stereo not drawn) | active: 11.7 µM | –
NC(=O)c1cccc(C(N)=O)n1 | – | inactive: 7.53%
CC(C)(O)CC[C@@H](O)[C@](C)(O)C1CC[C@@]2(O)C3=CC(=O)[C@]4(O)C[C@@H](O)[C@@H](O)C[C@]4(C)C3CC[C@]12C (stereo partly drawn) | – | inactive: -3.3%
O=C1C(Oc2ccccc2)C(c2cccs2)N1Cc1ccc2c(c1)OCO2 (stereo not drawn) | inconclusive [inhibitor, partial curve, poor fit] | –
O=C(CCC(=O)N1CCOCC1)NCc1cccc(C(F)(F)F)c1 | inconclusive [inhibitor, single point] | –
CCOCCn1c(SCCCc2ccccc2)nc2c1c(=O)[nH]c(=O)n2C | inconclusive [inhibitor, partial curve, poor fit] | –
CC1(C)OC(=O)C(=CNc2cccc(O)c2)C(=O)O1 | inconclusive [inhibitor, partial curve, poor fit] | –
Cn1c(=O)c(Nc2ccc(O)cc2)c2c3c(cccc31)C(=O)c1ccccc1-2 | inconclusive [inhibitor, single point] | –
COCCn1c(C)cc(C2=NNC(=NC(C)(C)C)SC2)c1C | active: 11.7 µM | –
COCCNC(=S)N/N=C/c1ccc(N2CCOCC2)cc1 | – | inactive: 79.2%
CC(Sc1ncn[nH]1)C(=O)Nc1cc(C(F)(F)F)ccc1Cl (stereo not drawn) | – | inactive: -28%

SMILES | Potency | activity change, negative = inhibition
Cc1ccc(C(=O)Cn2nnc(-c3cccs3)n2)cc1 | – | inactive: 65.1%
Cc1ccc(C2c3c(oc4ccccc4c3=O)C(=O)N2c2nnc(C(C)C)s2)o1 (stereo not drawn) | inconclusive [inhibitor, partial curve, poor fit] | –
C/C(=N/Nc1nc(C)cc(C)n1)c1ccc(Br)cc1 | inconclusive [inhibitor, full curve, poor fit] | –
O=[N+]([O-])c1ccccc1C1Nc2cccc3cccc(c23)N1 | inconclusive [inhibitor, full curve] | –
CC[C@H](C)C(=O)O[C@H]1CCC=C2C=C[C@H](C)[C@H](CC[C@@H]3C[C@@H](O)CC(=O)O3)[C@H]21 | inconclusive [inhibitor, single point] | –
CCCCOC(=O)Cn1c(=O)c2c(nc3n2CCCCN3c2ccc(C)cc2)n(C)c1=O | active: 7.38 µM | –
CCN(CC)CCN(C(=O)c1ccc2ccccc2c1)c1nc2cc3c(cc2s1)OCO3 | inconclusive [inhibitor, single point] | –
CCOC(=O)c1c(NC(=O)c2cc(C)oc2C)sc(C(=O)Nc2ccc(Cl)cc2)c1C | inconclusive [inhibitor, full curve] | –
CN(c1ccccc1)S(=O)(=O)c1cccc(NS(=O)(=O)c2cccc(C(=O)O)c2)c1 | – | inactive: 2.8%
O=C(CN(C(=O)CNS(=O)(=O)c1ccccc1)c1ccc2c(c1)OCCO2)NC1CCCCC1 | inconclusive [inhibitor, partial curve] | –
COc1ccc(C(=O)O)cc1S(=O)(=O)Nc1ccc(Oc2ccccc2)cc1 | inconclusive [inhibitor, single point] | –
COc1ccccc1COn1c(=O)c(-c2ccco2)[n+]([O-])c2ccccc21 | inconclusive [inhibitor, single point] | –
O=C(CNC(=O)C1COc2ccccc2O1)N/N=C/c1cc(Br)c(O)c(Br)c1 (stereo not drawn) | inconclusive [inhibitor, partial curve, poor fit] | –
Cc1ccc(C(C)C)c(OCc2nn(CC(=O)c3ccc(Cl)cc3)c3[n+]2CCCCC3)c1 | active: 11.7 µM | –
Cc1ccsc1C(=O)C1CCCN(Cc2ccccc2O)C1 (stereo not drawn) | inconclusive [inhibitor, full curve] | –
CC(C)(C)OC(=O)NCc1n[nH]c(=S)n1C1CC1 | – | inactive: 22.2%
CCN(CC)CCCN1C(=O)C2C(C(=O)Nc3ccc(C(C)C)cc3)C3C=CC2(O3)C1C(=O)NC1CCCCC1 (stereo not drawn) | inconclusive [inhibitor, partial curve, poor fit] | –
CCN(C(=O)COc1cc(OC)ccc1C(C)=O)C1CCS(=O)(=O)C1 (stereo not drawn) | inconclusive [inhibitor, partial curve, poor fit] | –
Cc1nc2ccccn2c1C(=O)N/N=C/c1cc(C)n(-c2ccc(Cl)cc2)c1C | inconclusive [inhibitor, single point] | –
COc1cc(C(=O)OCC(=O)N2CCCC2)cc(OC)c1OC | – | inactive: 15.7%
O=C(Nc1ccccc1C(F)(F)F)c1cc2ncc(CCCl)cn2n1 | inconclusive [inhibitor, single point] | –
